We go through 31 compounds from patent publication US20130184251A1, “HETEROAROMATIC AND AROMATIC PIPERAZINYL AZETIDINYL AMIDES AS MONOACYLGLYCEROL LIPASE INHIBITORS” (Janssen Pharmaceutica, NV, priority 2009, published 2013).

Where “and” joins values, the source holds several entries; their conditions need not be identical. Equal values may be shown once.

For test [1], the target named is T1, purified mutant MGL (mut-MGLL 11-313 L179S L186S) (Homo sapiens, UniProt Q99685, L169S/L176S).
T1 sequence (Q99685 1-303 L169S/L176S): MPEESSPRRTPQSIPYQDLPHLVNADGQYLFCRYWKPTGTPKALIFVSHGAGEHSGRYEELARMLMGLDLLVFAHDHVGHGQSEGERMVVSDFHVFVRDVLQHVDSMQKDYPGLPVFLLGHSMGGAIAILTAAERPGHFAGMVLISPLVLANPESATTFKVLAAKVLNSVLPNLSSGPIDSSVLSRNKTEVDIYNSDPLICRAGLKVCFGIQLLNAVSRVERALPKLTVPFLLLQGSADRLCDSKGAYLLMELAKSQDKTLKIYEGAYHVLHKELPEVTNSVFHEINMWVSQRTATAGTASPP
Kind of test: biochemical. As to conditions: Ex. 3 (mutant) IC50, mutant MGL (mut-MGLL 11-313 L179S L186S).

For test [2], the target named is T1, purified mutant MGL (mut-MGLL 11-313 L179S L186S). Put plainly: biochemical. As to conditions: Ex. 4 Kd, ThermoFluor. (In general: DSF heats the sample and reads unfolding from a dye or from intrinsic fluorescence.)

As for `CCCCCC1CCC(C(=O)N2CC(N3CCN(c4ccccn4)CC3)C2)CC1` (centres unmarked) [compound 54, 1-{1-[(4-Pentylcyclohexyl)carbonyl]azetidin-3-yl}-4-pyridin-2-ylpiperazine], in test [1], the IC50 – broadly, the concentration at which inhibition is half-maximal – turned out to be 0.263 µM. The Kd – broadly, the constant that tells how readily two partners part at equilibrium – in test [2] came out at 1.32 µM.
Taken in the same sequence, the figures for `CC(C)(C)c1ccc(CCC(=O)N2CC(N3CCN(c4ccccn4)CC3)C2)cc1` [compound 55, 1-{1-[3-(4-tert-Butylphenyl)propanoyl]azetidin-3-yl}-4-pyridin-2-ylpiperazine] were 0.271 µM and 0.364 µM.
On to `O=C(c1ccc(C2CCCCC2)cc1)N1CC(N2CCN(c3ccc(Cl)cn3)CC2)C1` [compound 56, 1-(5-Chloropyridin-2-yl)-4-{1-[(4-cyclohexylphenyl)carbonyl]azetidin-3-yl}piperazine], for which, in test [1], the IC50 amounted to 0.279 µM. The same compound had an equilibrium dissociation constant (Kd) in test [2] of 0.25 µM.
Regarding `COc1ccc2cc(C(=O)N3CC(N4CCN(c5ccccn5)CC4)C3)ccc2c1` [compound 57, 1-{1-[(6-Methoxynaphth-2-yl)carbonyl]azetidin-3-yl}-4-pyridin-2-ylpiperazine], in test [1], the half-inhibitory concentration (IC50) is 0.291 µM. Further, the affinity in test [2], expressed as Kd, was 0.577 µM.
The compound `O=C(c1ccccc1OCc1ccccc1)N1CC(N2CCN(c3ccccn3)CC2)C1` [compound 58, 1-(1-{[2-(Benzyloxy)phenyl]carbonyl}azetidin-3-yl)-4-pyridin-2-ylpiperazine] yielded an IC50 in test [1] of 0.346 µM. The Kd in test [2] came out at 1.08 µM.
The compound `O=C1c2ccccc2-c2ccc(C(=O)N3CC(N4CCN(c5ccccn5)CC4)C3)cc21` [compound 59, 2-{[3-(4-Pyridin-2-ylpiperazin-1-yl)azetidin-1-yl]carbonyl}-9H-fluoren-9-one] yielded an IC50 in test [1] of 0.4 µM. The compound also had an equilibrium dissociation constant (Kd) in test [2] of 2.3 µM.
On to `O=C(c1ccc(-c2ccccc2)c(F)c1)N1CC(N2CCN(c3ccccn3)CC2)C1` [compound 60, 1-{1-[(2-Fluorobiphenyl-4-yl)carbonyl]azetidin-3-yl}-4-pyridin-2-ylpiperazine], for which it took 0.45 µM to reach half-maximal inhibition in test [1] (IC50). Also, the equilibrium dissociation constant (Kd) in test [2] was 0.313 µM.
Consider `O=C(c1cc2cc(OCc3ccccc3)ccc2[nH]1)N1CC(N2CCN(c3ccccn3)CC2)C1` [compound 62, 5-(Benzyloxy)-2-{[3-(4-pyridin-2-ylpiperazin-1-yl)azetidin-1-yl]carbonyl}-1H-indole], for which it took 0.513 µM to reach half-maximal inhibition in test [1] (IC50). In addition, binding in test [2] was put at a Kd of 4.55 µM.
The corresponding values for `O=C(/C=C/c1ccc2c(c1)CCN2C1CCCCC1)N1CC(N2CCN(c3ccccn3)CC2)C1` [compound 63, 1-Cyclohexyl-5-{(1E)-3-oxo-3-[3-(4-pyridin-2-ylpiperazin-1-yl)azetidin-1-yl]prop-1-en-1-yl}-2,3-dihydro-1H-indole] are 0.518 µM and 2.5 µM.
The corresponding values for `O=C(CCc1cccc(I)c1)N1CC(N2CCN(c3ncccn3)CC2)C1` [compound 64, 2-(4-{1-[3-(3-Iodophenyl)propanoyl]azetidin-3-yl}piperazin-1-yl)pyrimidine] are 0.547 µM and 0.769 µM.
The corresponding values for `CC(C)c1ccc(/C=C/C(=O)N2CC(N3CCN(c4ccccn4)CC3)C2)cc1` [compound 65, 1-(1-{(2E)-3-[4-(1-Methylethyl)phenyl]prop-2-enoyl}azetidin-3-yl)-4-pyridin-2-ylpiperazine] are 0.549 µM and 0.488 µM.
In turn, `O=C(c1ccc(C2CCCCC2)cc1)N1CC(N2CCN(c3nc4ccccc4o3)CC2)C1` [compound 66, 2-(4-{1-[(4-Cyclohexylphenyl)carbonyl]azetidin-3-yl}piperazin-1-yl)-1,3-benzoxazole] gave an IC50 in test [1] of 0.614 µM. In addition, in test [2], the Kd stood at 1.28 µM.
Taken in the same sequence, the figures for `O=C(c1cccc(-c2ccccc2)c1)N1CC(N2CCN(c3ccccn3)CC2)C1` [compound 67, 1-[1-(Biphenyl-3-ylcarbonyl)azetidin-3-yl]-4-pyridin-2-ylpiperazine] were 0.62 µM and 0.794 µM.
Taken in the same sequence, the figures for `O=C(c1ccc(-c2ccccc2)cc1)N1CC([N+]2([O-])CCN(c3ncccn3)CC2)C1` [compound 69, 2-(4-[1-(Biphenyl-4-ylcarbonyl)azetidin-3-yl]-4-oxidopiperazin-1-yl}pyrimidine] were 0.735 µM and 1.39 µM.
For the compound `O=C(c1ccc(-n2ccnc2)cc1)N1CC(N2CCN(c3ncccn3)CC2)C1` [compound 71, 2-[4-(1-{[4-(1H-Imidazol-1-yl)phenyl]carbonyl}azetidin-3-yl)piperazin-1-yl]pyrimidine], in test [1], the IC50 was found to be 0.761 µM. In test [2], this compound showed a Kd of 3.23 µM.
Compound `NS(=O)(=O)c1ccc(-n2nc(C(=O)N3CC(N4CCN(c5ccccn5)CC4)C3)cc2-c2ccc(Cl)cc2)cc1` [compound 72, 4-[5-(4-Chlorophenyl)-3-{[3-(4-pyridin-2-ylpiperazin-1-yl)azetidin-1-yl]carbonyl}-1H-pyrazol-1-yl]benzenesulfonamide] displayed an IC50 in test [1] of 0.967 µM. Further, the affinity in test [2], expressed as Kd, was 0.476 µM.
The corresponding values for `O=C(/C=C/c1ccc(-c2ccccc2)cc1)N1CC(N2CCN(c3ccccn3)CC2)C1` [compound 73, 1-{1-[(2E)-3-Biphenyl-4-ylprop-2-enoyl]azetidin-3-yl}-4-pyridin-2-ylpiperazine] are 1 µM and 1.78 µM.
Taken in the same sequence, the figures for `O=C(c1ccccc1)c1ccc(C(=O)N2CC(N3CCN(c4ccccn4)CC3)C2)cc1` [compound 74, Phenyl(4-{[3-(4-pyridin-2-ylpiperazin-1-yl)azetidin-1-yl]carbonyl}phenyl)methanone] were 1.2 µM and 2.2 µM.
The corresponding values for `O=C(c1ccc(N2C(=O)c3ccccc3C2=O)cc1)N1CC(N2CCN(c3ccccn3)CC2)C1` [compound 76, 2-(4-{[3-(4-Pyridin-2-ylpiperazin-1-yl)azetidin-1-yl]carbonyl}phenyl)-1H-isoindole-1,3(2H)-dione] are 1.36 µM and 3.85 µM.
The compound `O=C(c1ccc(C2CCCCC2)cc1)N1CC(N2CCN(c3ccc(Br)cn3)CC2)C1` [compound 77, 1-(5-Bromopyridin-2-yl)-4-{1-[(4-cyclohexylphenyl)carbonyl]azetidin-3-yl}piperazine] showed an IC50 in test [1] of 1.37 µM. In test [2], this compound had a dissociation constant (Kd) of 3.03 µM.
`CC(C)(C)C1CCC(C(=O)N2CC(N3CCN(c4ccccn4)CC3)C2)CC1` (centres unmarked) [compound 78, 1-{1-[(4-tert-Butylcyclohexyl)carbonyl]azetidin-3-yl}-4-pyridin-2-ylpiperazine]: the IC50 in test [1] is 1.47 µM. For the same compound, the Kd in test [2] amounted to 4.58 µM.
The compound `O=C(c1ccc(-c2cccc(C(F)(F)F)c2)o1)N1CC(N2CCN(c3ccccn3)CC2)C1` [compound 80, 1-Pyridin-2-yl-4-[1-({5-[3-(trifluoromethyl)phenyl]furan-2-yl}carbonyl)azetidin-3-yl]piperazine] came in with an IC50 in test [1] of 1.75 µM. Also, in test [2], the Kd is 12.5 µM.
Consider `O=C(c1cccc(N2Cc3ccccc3C2)c1)N1CC(N2CCN(c3ccccn3)CC2)C1` [compound 81, 2-(3-{[3-(4-Pyridin-2-ylpiperazin-1-yl)azetidin-1-yl]carbonyl}phenyl)-2,3-dihydro-1H-isoindole], for which inhibition in test [1] was half-maximal at 2.06 µM (IC50). Also, the Kd in test [2] was 1.16 µM.
The corresponding values for `O=C(c1ccc(C2CCCCC2)cc1)N1CC(N2CCN(c3ncccc3C(F)(F)F)CC2)C1` [compound 82, 1-{1-[(4-Cyclohexylphenyl)carbonyl]azetidin-3-yl}-4-[3-(trifluoromethyl)pyridin-2-yl]piperazine] are 2.23 µM and 4.55 µM.
The compound `Cc1ccc(-c2ccc(C(=O)N3CC(N4CCN(c5ccccn5)CC4)C3)o2)cc1` [compound 84, 1-(1-{[5-(4-Methylphenyl)furan-2-yl]carbonyl}azetidin-3-yl)-4-pyridin-2-ylpiperazine] gave a half-maximal inhibitory concentration (IC50) in test [1] of 3.16 µM. In addition, in test [2], the Kd stood at 8.33 µM.
`O=C(c1ccc(-c2ccccc2)cc1)N1CC(N2CCN(c3ccc(Br)cn3)CC2)C1` [compound 85, 1-[1-(Biphenyl-4-ylcarbonyl)azetidin-3-yl]-4-(5-bromopyridin-2-yl)piperazine] registered an IC50 in test [1] of 3.45 µM. In test [2], this compound returned a Kd of 4.54 µM.
In the case of `O=C(c1ccccc1)c1cccc(C(=O)N2CC(N3CCN(c4ccccn4)CC3)C2)c1` [compound 86, Phenyl(3-{[3-(4-pyridin-2-ylpiperazin-1-yl)azetidin-1-yl]carbonyl}phenyl)methanone], the half-maximal inhibitory concentration (IC50) in test [1] was 3.1 µM and 5.3 µM. In test [2], the Kd is 2.38 µM and 10.2 µM.
In test [1], `O=C(Cc1ccc(-c2ccccc2)cc1)N1CC(N2CCN(c3ccccn3)CC2)C1` [compound 88, 1-[1-(Biphenyl-4-ylacetyl)azetidin-3-yl]-4-pyridin-2-ylpiperazine] showed an IC50 of 4 µM. Further, in test [2], the Kd was found to be 7.1 µM.
`COc1ccccc1N1CCN(C2CN(C(=O)c3ccc(-c4ccccc4)cc3)C2)CC1` [compound 89, 1-[1-(Biphenyl-4-ylcarbonyl)azetidin-3-yl]-4-(2-methoxyphenyl)piperazine] yielded an IC50 in test [1] of 4.5 µM. In test [2], the Kd came to 6.25 µM.
The corresponding values for `O=C(c1ccc(-c2ccccc2)cc1)N1CC(N2CCN(c3nc4ccccc4o3)CC2)C1` [compound 90, 2-(4-[1-(Biphenyl-4-ylcarbonyl)azetidin-3-yl]piperazin-1-yl}-1,3-benzoxazole] are 4.58 µM and 0.769 µM.
The corresponding values for `CSc1ccccc1N1CCN(C2CN(C(=O)c3ccc(-c4ccccc4)cc3)C2)CC1` [compound 91, 1-[1-(Biphenyl-4-ylcarbonyl)azetidin-3-yl]-4-[2-(methylsulfanyl)phenyl]piperazine] are 4.66 µM and 6.25 µM.
